Experimental data: PubChem BioAssay AID1345083 (National Center for Advancing Translational Sciences (NCATS), 2018)
In all, about 94,000 compounds went through this assay and about 6,200 (6.6%) were called active. The inconclusive results got no clear call from the source; some entries with a clear call stand among them for comparison. Calls come from the whole dose curve; as a rule, active = well fitted inhibition curve with a large enough effect; inconclusive = small, poorly fitted or top-dose-only effect; inactive = flat fitted curve, though single readings scatter. Where the call is inconclusive, the potency comes from a doubtful curve fit.

Experiment: Cytotoxic Profiling in HEK 293 Cell Line of Diverse Libraries Using Quantitative High-Throughput Screening; note: nearly all actives have a fitted effect of over 60% in size
Conditions: HEK 293 viability, ATP luminescence (CellTiter-Glo), 48-72 h; activity change, negative = cytotoxicity: at 115 µM (top of the series) unless noted; series mostly up to 115 µM
Method in brief: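 HEK 293 seeded at 250 cells/well receive compound via pintool. After 48 or 72 hr at 37 degree Celsius, 5% CO2 and 95% humidity, CellTiter-Glo is dispensed and luminescence read following 10 min at room temperature.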
% is set by controls: 0 for no effect and ±100 for the full control effect; potency is the fitted concentration of half-maximal effect; tags give direction and shape of the fitted curve.

Compound | activity change, negative = cytotoxicity | Potency | outcome
COc1ccccc1CC(=O)NC1CCN(c2cc(C(F)(F)F)nc(C)n2)CC1 | inactive: -14.4% |  | 
O=C(c1cc2ccccc2[nH]1)N1CCCN(c2cc(-c3ccccc3)[nH]n2)CC1 |  | inconclusive: 50.1 µM [inhibitor, partial curve, poor fit] | 
O=C(c1ccncc1)N1CCC(Cc2noc(-c3ccccc3)n2)C1 (stereo unspecified) |  | inconclusive: 79.4 µM [inhibitor, single point] | 
COCCN1CCNc2nc(CN(C)Cc3ccccc3)n(Cc3ccccc3)c2C1=O |  | inconclusive: 112 µM [inhibitor, partial curve, poor fit] | 
CN1CCN(C(=O)c2cc(-c3cccc(F)c3)nc3c2cnn3C)CC1 | inactive: -8.7% |  | 
c1ccc(-c2noc(-c3nc(C4CC4)no3)n2)cc1 |  | inconclusive: 70.8 µM [inhibitor, partial curve, poor fit] | 
Cc1nn(-c2ccccc2)c2c1C(C(C)C)N(C1CN(C(=O)C3CCCC3)C1)C2=O (stereo unspecified) |  | active: 44.7 µM | 
O=C(CCc1ccc(CC2CCN(C(=O)c3cccs3)CC2)cc1)NC1CC1 |  | inconclusive: 50.1 µM [inhibitor, partial curve, poor fit] | 
Cc1nc2cccnc2n1CC1CCCN(S(=O)(=O)c2cccc(F)c2)C1 (stereo unspecified) |  | active: 35.5 µM | 
CCC(=O)N1CCN(c2nc3c(s2)CC(C(=O)NCc2ccc(F)cc2)CC3)CC1 (stereo unspecified) |  | inconclusive: 79.4 µM [inhibitor, partial curve, poor fit] | 
COc1cc2c(cc1-c1ccc(OC(F)(F)F)cc1)OCC(C)(C)CC2CO (stereo unspecified) |  | active: 22.4 µM | 
COCC(=O)N[C@@H]1CN(Cc2ccc(Cl)cc2F)C[C@H]1CO | inactive: -6.19% |  | 
COc1ccc(C(=O)N2CCC(Cc3nc(-c4cnccn4)no3)CC2)cc1 |  | inconclusive: 50.1 µM [inhibitor, partial curve, poor fit] | 
Cc1noc(C)c1-c1cc(-c2ccc(N3CCOCC3)nc2)cn2cncc12 |  | inconclusive: 100 µM [inhibitor, partial curve] | 
COc1ccc(Nc2cnc3ccc(-c4ccc(OC)c(OC)c4)nn23)cn1 |  | active: 63.1 µM | 
CCc1nc(-c2ccc(C(=O)N3CCOCC3)cc2)n(-c2cccc(C)n2)n1 | inactive: -23.8% |  | 
COC(=O)CNC(=O)C1CCCN1Cc1ccc(-c2cccc(OC)c2)cc1 (stereo unspecified) |  | inconclusive: 89.1 µM [inhibitor, single point] | 
O=C(C[C@@H]1O[C@H](CNCc2cccc(Cl)c2)[C@@H](O)[C@H]1O)Nc1ccccc1 |  | inconclusive: 112 µM [inhibitor, partial curve, poor fit] | 
Cc1cc(C(=O)N2CCN(c3ccnc4ccnn34)CC2)ccc1Cl |  | inconclusive: 39.8 µM [inhibitor, partial curve, poor fit] | 
Cc1ccc(C)c(S(=O)(=O)c2nnn3c2nc(N2CCCCC2)c2ccccc23)c1 |  | inconclusive: 89.1 µM [inhibitor, single point] | 
N#Cc1ccc(CNC2(Cc3cc(-c4ccc(F)cc4)on3)COC2)cc1 |  | inconclusive: 100 µM [inhibitor, partial curve] | 

Compound | activity change, negative = cytotoxicity | Potency | outcome
COc1ccc(CN2CC3(C2)C(=O)Nc2ccccc23)cc1 |  | inconclusive: 112 µM [inhibitor, single point] | 
O=C(CN1Cc2nc(OCc3ccc(F)cc3)ccc2OCC1=O)N1CCCC1 |  | inconclusive: 89.1 µM [inhibitor, partial curve, poor fit] | 
Cc1ccc(C(=O)N2CCC3(CC2)NCCc2c3[nH]c3ccccc23)s1 |  | inconclusive: 11.2 µM [inhibitor, full curve, poor fit] | 
Cc1cc(C)cc(-c2ccc(C(=O)N3CCC(Oc4cccnc4)CC3)cn2)c1 |  | inconclusive: 89.1 µM [inhibitor, single point] | 
Cc1nc(CC(=O)NC2CCCc3c2cnn3-c2ccc(C(C)(C)C)cc2)cs1 (stereo unspecified) |  | inconclusive: 44.7 µM [inhibitor, partial curve, poor fit] | 
O=C(NC1CCN(Cc2cccc(-c3cccs3)c2)CC1)C1CCCC1 | inactive: -37.1% |  | 
COC(=O)c1ccccc1NC(=O)N1CCC[C@@H](O)[C@H](NC(=O)c2ccc(OCc3c(C)noc3C)cc2)C1 |  | inconclusive: 50.1 µM [inhibitor, partial curve, poor fit] | 
O=C1NCCOCCN(S(=O)(=O)c2cccc(F)c2)[C@H]2CCC[C@@H]12 | inactive: 2.91% |  | 
O=C(c1ccc(C(F)(F)F)cc1)N1CCC(C(=O)N2CCC(N3Cc4cccn4C3=O)CC2)CC1 |  | inconclusive: 39.8 µM [inhibitor, full curve, poor fit] | 
Cn1cc(-c2cnc(Nc3ccncc3)c3c2CCO3)cn1 |  | inconclusive: 100 µM [inhibitor, partial curve] | 
Oc1ccccc1-c1cnc2n[nH]c(-c3ccc4c(c3)OCO4)c2n1 |  | inconclusive: 31.6 µM [inhibitor, full curve] | 
C#CCNC(=O)C1CCN(C(=O)c2ccc(-c3cccs3)cc2)CC1 |  | inconclusive: 89.1 µM [inhibitor, single point] | 
CC(C)=CCn1c(-c2cc(C)oc2C)cn2cc(C(=O)N[C@@H](C)C(N)=O)nc2c1=O |  |  | inactive
Cc1ccc(C(=O)Nc2cccc(-c3ccc(N4CCN(C)CC4)nn3)c2)cc1C |  | inconclusive: 39.8 µM [inhibitor, full curve, poor fit] | 
O=C(Nc1ccc(=O)n2c1[C@@H]1C[C@@H](CN(C(=O)c3ccc(F)cc3)C1)C2)c1ccc2c(c1)OCO2 | inactive: -2.95% |  | 
O=C(Nc1ccccc1F)N1CC2CCC(C1)N2Cc1ccc(-c2cccs2)cc1 |  |  | inactive
O=C(N1C[C@@H](CO)[C@H](c2ccncc2)C1)C1(c2ccccc2)CC1 |  | inconclusive: 50.1 µM [inhibitor, partial curve, poor fit] | 
Cc1ccc(C(=O)N2C[C@@H](F)C[C@H]2C(=O)N2CCc3ccccc3C2)s1 | inactive: -8.85% |  | 
Cc1noc(-c2cccc(OC3CN(C(=O)CN4C(=O)CCC4=O)C3)c2)n1 |  | inconclusive: 31.6 µM [inhibitor, partial curve, poor fit] | 
CC1(CCCCc2ccccc2)COc2ccc(C(=O)NCCc3cnc[nH]3)cc2N1 (stereo unspecified) |  | inconclusive: 100 µM [inhibitor, partial curve] | 
